Experimental data from PubChem BioAssay AID504332 (National Center for Advancing Translational Sciences (NCATS), 2011).
The campaign covered roughly 350,000 compounds. About 31,000 (8.9%) were called active. Inconclusive means that the source gave no clear call. Such entries were picked first, then a sample of the others. The call rests on the fitted dose curve; in most records, active means well fitted inhibition curve with a large enough effect; inconclusive means small, poorly fitted or top-dose-only effect; inactive means no such curve, though single readings can be large or run the other way. Potencies beside an inconclusive call are fits to weak or partial responses and may not hold up.

Target: Histone-lysine N-methyltransferase EHMT2 (Homo sapiens) (UniProt Q96KQ7)
Chain of UniProt Q96KQ7 (Q96KQ7 whole entry, looked up): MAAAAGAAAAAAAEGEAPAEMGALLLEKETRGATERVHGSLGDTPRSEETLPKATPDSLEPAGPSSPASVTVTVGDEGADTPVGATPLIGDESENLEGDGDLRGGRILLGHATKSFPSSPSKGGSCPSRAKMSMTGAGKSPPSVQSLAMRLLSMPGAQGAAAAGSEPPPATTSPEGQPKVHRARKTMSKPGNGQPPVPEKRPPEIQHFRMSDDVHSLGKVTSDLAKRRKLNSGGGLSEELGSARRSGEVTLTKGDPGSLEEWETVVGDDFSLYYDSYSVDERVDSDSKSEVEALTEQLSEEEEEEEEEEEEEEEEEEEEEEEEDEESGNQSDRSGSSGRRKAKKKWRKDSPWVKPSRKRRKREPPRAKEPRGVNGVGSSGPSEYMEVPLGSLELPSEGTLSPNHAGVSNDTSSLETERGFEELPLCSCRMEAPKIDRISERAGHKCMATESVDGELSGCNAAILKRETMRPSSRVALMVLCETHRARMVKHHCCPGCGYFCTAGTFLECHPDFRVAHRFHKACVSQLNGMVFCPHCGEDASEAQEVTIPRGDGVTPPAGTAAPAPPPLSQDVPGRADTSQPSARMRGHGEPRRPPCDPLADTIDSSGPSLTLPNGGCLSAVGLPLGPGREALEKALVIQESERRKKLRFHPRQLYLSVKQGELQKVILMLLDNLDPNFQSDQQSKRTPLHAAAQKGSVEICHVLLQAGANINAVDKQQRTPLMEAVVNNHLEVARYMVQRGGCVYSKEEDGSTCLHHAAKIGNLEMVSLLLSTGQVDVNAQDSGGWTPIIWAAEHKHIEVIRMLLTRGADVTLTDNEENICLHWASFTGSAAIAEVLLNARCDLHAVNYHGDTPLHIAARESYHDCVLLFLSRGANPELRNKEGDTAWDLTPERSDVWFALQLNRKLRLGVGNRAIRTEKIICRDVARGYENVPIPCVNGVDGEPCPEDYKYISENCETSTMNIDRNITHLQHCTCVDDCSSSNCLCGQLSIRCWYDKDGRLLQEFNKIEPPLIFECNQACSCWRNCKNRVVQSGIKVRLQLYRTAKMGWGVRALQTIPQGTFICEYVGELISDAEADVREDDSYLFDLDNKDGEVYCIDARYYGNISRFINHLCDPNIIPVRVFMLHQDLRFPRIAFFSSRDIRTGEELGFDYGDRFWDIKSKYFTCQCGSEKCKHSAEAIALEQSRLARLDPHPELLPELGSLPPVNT
Assay: qHTS Assay for Inhibitors of Histone Lysine Methyltransferase G9a; further: nearly all actives have a fitted effect of over 75% in size
Conditions: G9a H3K9 monomethylation, AlphaScreen, 2 h; activity, negative = inhibition: at 59 µM (top of the series) unless noted
In short: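 G9a (20 nM) preincubated 15 min RT with compounds, then 500 nM biotinylated H3K9 peptide and 20 uM SAM added; 2 h RT reaction. Monomethyl-H3K9 product detected by AlphaScreen with anti-H3K9me1 antibody, streptavidin donor and anti-rabbit IgG acceptor beads.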
On the % scale 0 is the no-effect control and ±100 the full control effect; potency means the concentration at half of the fitted maximal effect; tags describe the fitted curve by direction and shape.

| Structure (SMILES) | Potency | activity, negative = inhibition |
| --- | --- | --- |
| Cc1cccc(NC(=O)CNC(=O)c2cccc(-n3cccc3)c2)c1C | active: 35.5 µM | – |
| Nc1[nH]n2c(=O)cc(-c3ccccc3)nc2c1N=Nc1ccc2c(c1)OCO2 | inconclusive: 15.8 µM [inhibitor, partial curve, poor fit] | – |
| Cc1ccc(NC(=O)C2(C)Cc3ccccc3C(=O)O2)c(C)c1 (stereo unspecified) | – | inactive: 7.29% |
| CSc1ncccc1C(=O)OCC(=O)c1cc2ccccc2o1 | inconclusive: 89.1 µM [inhibitor, single point] | – |
| O=C(Nc1ccc(N2CCOCC2)cc1)c1ccc(Cl)nc1 | active: 50.1 µM | – |
| COc1ccc(CCNC(=O)c2ccc3c(c2)sc2nc(-c4ccccc4)cn23)cc1OC | – | inactive: -21.2% |
| Cc1ccc(NC(=O)N2CCN(C(=O)c3ccco3)CC2)cc1Cl | – | inactive: 11.7% [at 102 µM] |
| CCC1C(=O)N(c2nc(C)cc(C)n2)N=C1C (stereo unspecified) | active: 20 µM | – |
| COC(=O)c1ccc(C(=O)OC)c(NC(=O)CN2CCN(c3ccc(OC)cc3)CC2)c1 | inconclusive: 11.2 µM [inhibitor, partial curve] | – |
| Fc1ccc(NC(=S)Nc2cccnc2)cc1 | inconclusive: 70.8 µM [inhibitor, partial curve] | – |
| O=S(=O)(c1ccccc1)c1nc(-c2ccccc2Cl)oc1N1CCCCCC1 | inconclusive: 15.8 µM [inhibitor, partial curve] | – |
| CCOc1ccc(Nc2nc(Cl)nc(N3CCN(c4ccc(OC)cc4)CC3)n2)cc1 | active: 12.6 µM | – |
| NC(=O)c1cc2ccccc2o/c1=N/NC(=O)c1ccccc1 | – | inactive: 23.9% [at 102 µM] |
| COCC(C)NC(=O)c1ccc(N(C)C)cc1 (stereo unspecified) | – | inactive: 12.4% |
| COc1ccc(C)cc1C(=O)CCC(=O)Nc1ccccc1N1CCOCC1 | – | inconclusive: -84% [inhibitor] |
| Cc1ccc(S(=O)(=O)C(CNC(=O)c2c(F)cccc2F)c2ccco2)cc1 (stereo unspecified) | – | inactive: -33.1% |
| Cc1cccc(C(=O)N2CCc3cc(CNC(=O)c4cc5ccccc5[nH]4)ccc32)c1 | – | inactive: -16% |
| COc1ccc(OCCCCN(C)Cc2ccccc2)cc1 | inconclusive: 11.2 µM [inhibitor, full curve, poor fit] | – |
| O=C(CN1CCOCCOCCOCC1)Nc1ccccc1 | inconclusive: 28.2 µM [inhibitor, single point] | – |
| CCN(CC)C(=O)COC(=O)c1ccc(O)cc1 | – | inactive: 20.1% |
| Cc1ccc(C)c(NC(=O)Cn2cc(C(=O)C3CC3)c3ccccc32)c1 | inconclusive: 89.1 µM [inhibitor, single point] | – |
| O=C(COC(=O)c1cccc([N+](=O)[O-])c1)c1ccc2c(c1)OCO2 | inconclusive: 89.1 µM [inhibitor, partial curve, poor fit] | – |
| CC1(c2ccc(Cl)cc2)NC(=O)N(CC(=O)Nc2cccnc2Cl)C1=O (stereo unspecified) | – | inactive: 0.782% [at 102 µM] |
| O=c1cc(O)c2ccccc2n1Cc1ccccc1 | – | inactive: -2.27% |

| Structure (SMILES) | Potency | activity, negative = inhibition |
| --- | --- | --- |
| CCS(=O)(=O)N1CCc2cc(C(=O)NCc3ccccc3OC)ccc21 | inconclusive: 31.6 µM [inhibitor, single point] | – |
| Cc1c(CN2CCC(n3nccc3NC(=O)C3CCOC3)CC2)[nH]c2ccccc12 (stereo unspecified) | inconclusive: 6.31 µM [inhibitor, full curve] | – |
| O=C(O)c1cc(S(=O)(=O)N2CCCCCC2)c(Cl)cc1Cl | inconclusive: 70.8 µM [inhibitor, partial curve, poor fit] | – |
| CCC(C)NC(=O)CCn1c(-c2ccc(F)cc2)cc(C(C)=O)c1C (stereo unspecified) | – | inactive: -10.9% [at 102 µM] |
| CC1=C(/C=C/C(C)=C/C=C/C(C)=C\CO)C(C)(C)CCC1 | active: 25.1 µM | – |
| CC(=O)N1CCN(CCS(=O)(=O)c2ccc(Br)cc2)CC1 | – | inactive: 26.3% |
| Cc1cc2nc(SCC(=O)N(C)C)c3c(c2cc1C)CCCC3 | – | inactive: 24.3% |
| O=S(=O)(c1cccs1)N1CCN(CCOc2ccccc2)CC1 | inconclusive: 79.4 µM [inhibitor, single point] | – |
| CCCCN(C(=O)C1CC(=O)N(CCc2ccc(OC)c(OC)c2)C1)c1c(N)n(CCCC)c(=O)[nH]c1=O (stereo unspecified) | active: 15.8 µM | – |
| CSc1ccc(CN2CCN(C(=O)CC(C)C)CC2)cc1 | – | inactive: -1.82% [at 0.501 µM] |
| Cc1ccc(C(=O)NNC(=O)CSc2nnc(-c3ccncc3)n2C)cc1 | inconclusive: 70.8 µM [inhibitor, single point] | – |
| C/C=C/c1ccc(OCCCCN(C)Cc2ccccc2)c(OC)c1 | inconclusive: 7.94 µM [inhibitor, full curve, poor fit] | – |
| Cc1nc2ccc(NS(=O)(=O)c3ccccc3Cl)cc2s1 | inconclusive: 6.31 µM [inhibitor, single point] | – |
| COCCn1c(-c2ccc(SC)cc2)nc2c1c(=O)[nH]c(=O)n2CC(C)C | inconclusive: 79.4 µM [inhibitor, single point] | – |
| COC(=O)C1=C(C)N(C)C(=O)/C1=C\c1cccs1 | inconclusive: 22.4 µM [inhibitor, single point] | – |
| O=C(COC(=O)CSc1ccc([N+](=O)[O-])cc1)NCc1cccs1 | inconclusive: 20 µM [inhibitor, partial curve, poor fit] | – |
| CCOC(=O)c1c(NC(=O)c2ccc(C)cc2)sc2c1CC(C)(C)OC2 | – | inactive: 15.8% [at 12.7 µM] |
| O=c1nc2s/c(=C\c3ccco3)c(=O)n2nc1Cc1ccc(F)cc1 | – | inconclusive: -75% [inhibitor] |
| COC1=C/C(=C/c2c(N)n3nc(CC(=O)N4CCOCC4)sc3nc2=O)C=CC1=O | inconclusive: 50.1 µM [inhibitor, partial curve, poor fit] | – |
| CC1CN(CC(=O)Nc2nc3ccccc3s2)CC(C)O1 (stereo unspecified) | – | inactive: -9.69% [at 102 µM] |
| O=C1NC(=Nc2ccccc2Cl)S/C1=C\c1cccc([N+](=O)[O-])c1 | inconclusive: 28.2 µM [inhibitor, single point] | – |
| Cc1cc(OCc2nn[nH]n2)c2c(-c3ccccc3)cc(=O)oc2c1 | inconclusive: 89.1 µM [inhibitor, single point] | – |
| CN1CCN(C(=O)/C=C/c2cn(-c3ccccc3)nc2-c2ccc3c(c2)OCCO3)CC1 | inconclusive: 70.8 µM [inhibitor, single point] | – |
| O=C(NCc1ccccn1)c1ccc(Br)s1 | inconclusive: 7.94 µM [inhibitor, partial curve, poor fit] | – |

| Structure (SMILES) | Potency | activity, negative = inhibition |
| --- | --- | --- |
| COc1ccc(Cl)cc1-n1cc(-c2ccccc2)nc1SCC(=O)Nc1ccc(C)cc1 | inconclusive: 11.2 µM [inhibitor, partial curve] | – |
| O=C(c1cc2c(cc1Br)OCCCO2)N1CCCCC1 | – | inactive: 28.1% |
| Cc1sc2nc(CSc3nnc(Cc4cccs4)n3C3CCCCC3)[nH]c(=O)c2c1C | active: 44.7 µM | – |
| COc1ccc(N=C2S/C(=C\c3ccc(Cl)c([N+](=O)[O-])c3)C(=O)N2CCN(C)C)cc1 | inconclusive: 44.7 µM [inhibitor, partial curve, poor fit] | – |
| COc1cccc(Nc2nc3ccccc3n3nnnc23)c1 | inconclusive: 89.1 µM [inhibitor, single point] | – |
| CC(C)c1ccc(S(=O)(=O)/N=C2\C=C(NS(=O)(=O)c3ccccc3)C(=O)c3ccccc32)cc1 | active: 6.31 µM | – |
| CCn1c(COc2ccc3c(c2)OCO3)nnc1SCC(=O)c1ccc(Cl)cc1 | active: 50.1 µM | – |
| CSc1nc(NCCOCCO)c2sc3nc(-c4ccco4)c4c(c3c2n1)CCC4 | active: 15.8 µM | – |
| Cc1sc2nc(CSCC(=O)NC3(C#N)CCCCC3)[nH]c(=O)c2c1C | inconclusive: 6.31 µM [inhibitor, single point] | – |
| O=[N+]([O-])c1ccc(N2N=C(c3ccccc3)CC2c2ccccc2O)cc1 (stereo unspecified) | inconclusive: 89.1 µM [inhibitor, single point] | – |
| COc1ccc2c(c1)c(=O)c(C(=O)c1ccccc1)cn2CC(=O)Nc1ccc2c(c1)OCO2 | inconclusive: 39.8 µM [inhibitor, partial curve, poor fit] | – |
| COc1ccc(Cn2cc(S(=O)(=O)c3ccc(C)cc3)c(=O)c3cc(F)ccc32)cc1 | inconclusive: 39.8 µM [inhibitor, single point] | – |
| COC(=O)C1=C(C)N(Cc2ccco2)C(=O)N[C@H]1c1ccc(Br)cc1 | active: 50.1 µM | – |
| Cc1cc(=O)oc2c(CN3CCN(C)CC3)c(O)c(Cl)cc12 | inconclusive: 3.55 µM [inhibitor, single point] | – |
| O=C1NCC(c2ccccc2)C1C(=O)N/N=C\c1ccc(-c2cccc(Cl)c2Cl)o1 (stereo unspecified) | active: 12.6 µM | – |
| CCCCCN(C(=O)CCC(=O)OC(C)C(=O)NC1CCCCC1)c1c(N)n(CCCC)c(=O)[nH]c1=O (stereo unspecified) | inconclusive: 89.1 µM [inhibitor, single point] | – |
| CCn1nc(C(=O)NNC(=O)c2ccccc2OCc2c(C)noc2C)c2ccccc2c1=O | inconclusive: 2.82 µM [inhibitor, single point] | – |
| CCCNC(=O)C1CCN(S(=O)(=O)c2cccs2)CC1 | – | inactive: -1.14% [at 102 µM] |
| O=C(N/N=C/c1coc2ccccc2c1=O)c1cc2ccccc2o1 | inconclusive: 89.1 µM [inhibitor, single point] | – |
| CC(C)=CC(=O)Nc1ccc(OCc2ccccc2)cc1 | – | inactive: 18.8% [at 12.7 µM] |
| O=c1cc(-c2ccc(O)cc2)oc2c([C@@H]3O[C@H](CO)[C@@H](O)[C@H](O)[C@H]3O)c(O)c([C@@H]3O[C@H](CO)[C@@H](O)[C@H](O)[C@H]3O)c(O)c12 | inconclusive: 89.1 µM [inhibitor, single point] | – |
| COc1ccc(CCNC(=O)c2ccc3c(c2)CCN3S(C)(=O)=O)cc1OC | – | inactive: 16.8% |
| COc1ccc(N(CC(=O)N2CCCCC2)S(=O)(=O)c2c(C)nn(C)c2C)cc1 | inconclusive: 89.1 µM [inhibitor, single point] | – |
